{"source": "PubChem BioAssay AID624296", "about": "(National Center for Advancing Translational Sciences (NCATS), 2012)", "note": "Among all 350,000 compounds or so, about 9,900 (2.8%) were called active. This list was built around the results that the source calls inconclusive (neither active nor inactive); the mix of calls is not that of the screen. Calls follow the shape of the dose curve; as a rule, active = well fitted activation curve with a large enough effect; inconclusive = small, poorly fitted or top-dose-only effect; inactive = no such curve, though single readings can be large or run the other way. Potencies of inconclusive entries are left out as doubtful fits. Potency is read from the fitted curve at half-maximal effect; tags tell the direction and shape of the fitted curve."}
{"experiment": "A quantitative high throughput screen for small molecules that induce DNA re-replication in MCF 10a normal breast cells; also: nearly all actives have a fitted effect of over 50% in size; as to activity, positive = re-replication: % of control where 0% means no effect.", "settings": "MCF 10A DNA re-replication, Hoechst nuclear intensity, 48 h; activity, positive = re-replication: at 46.1 µM (top of the series)"}
{"compound": "COc1cc2c(c(OC)c1OC)C(=O)CO2", "activity, positive = re-replication": "inactive: 0.543%"}
{"compound": "Cc1cc2cc(CCNC(=O)c3cccs3)c(=O)[nH]c2cc1C", "Potency": "inconclusive [activator, single point]"}
{"compound": "Cc1ccccc1C(=O)Nc1nnc(SCC(=O)NCc2ccco2)s1", "activity, positive = re-replication": "inactive: 9.75%"}
{"compound": "Cc1ccc(NC(=S)N(CCCN2CCC(C)CC2)Cc2ccco2)cc1C", "Potency": "inconclusive [activator, partial curve, poor fit]"}
{"compound": "CCn1c(SCC(=O)NCc2cccs2)nnc1-c1ccncc1", "activity, positive = re-replication": "inactive: 13.3%"}
{"compound": "CC1=C(C(=O)OC(C)C)C(C)C(C(=O)OC(C)C)=C(C)N1", "Potency": "inconclusive [activator, single point]"}
{"compound": "O=C(OCC(O)C(O)C(O)COC(=O)c1ccccc1)c1ccccc1", "note": "(configuration not stated)", "activity, positive = re-replication": "inactive: 1.49%"}
{"compound": "NS(=O)(=O)c1ccc(CCNC(=O)c2ccc(NC3=NC4CS(=O)(=O)CC4S3)cc2)cc1", "note": "(configuration not stated)", "activity, positive = re-replication": "inactive: 0.0976%"}
{"compound": "O=C(COC(=O)c1ccccc1NCCO)Nc1cc(C(F)(F)F)ccc1N1CCOCC1", "Potency": "inconclusive [activator, partial curve, poor fit]"}
{"compound": "CCOC(=O)Cc1cc(=O)n2[nH]cc(-c3cccc(Br)c3)c2n1", "Potency": "inconclusive [activator, single point]"}
{"compound": "Cc1cc(C)c2c(n1)nn1c(NCCOCCO)cc(C)nc21", "activity, positive = re-replication": "inactive: 2.15%"}
{"compound": "CCC(C)NC(=O)[C@H](CSCc1ccccc1)N1Cc2ccccc2C1=O", "note": "(some centres not stated)", "Potency": "inconclusive [activator, partial curve, poor fit]"}
{"compound": "c1ccc2nc3c(nc2c1)c1ccccc1n3CCN1CCOCC1", "Potency": "active: 18.4 µM"}
{"compound": "COc1ccc(NC(=O)c2ccc(-c3ccc(C(C)=O)cc3)o2)cn1", "Potency": "inconclusive [activator, partial curve, poor fit]"}
{"compound": "CC(=O)Nc1nc(-c2cccc3ccccc23)cs1", "Potency": "inconclusive [activator, partial curve, poor fit]"}
{"compound": "O=C(CCC1CCCC1)N1CCC(N2CCCCCC2)CC1", "Potency": "inconclusive [activator, single point]"}
{"compound": "COc1cccc(CNc2ncc(Br)cc2Br)c1O", "Potency": "inconclusive [activator, single point]"}
{"compound": "COc1ccc(C(=O)c2coc3ccc(OC(C)=O)cc23)cc1", "activity, positive = re-replication": "inactive: -8.82%"}
{"compound": "Clc1cccc(OCc2nc(-c3ccncc3)n[nH]2)c1", "Potency": "inconclusive [activator, partial curve, poor fit]"}
{"compound": "Cc1cc(C)cc(NC(=S)N(C)C)c1", "activity, positive = re-replication": "inactive: -14.1%"}
{"compound": "CC[C@]1(C(=O)OC)[C@H]2C(=O)N(C)C(=O)[C@H]2[C@H]2CN=C(SCc3ccc(C(=O)OC)cc3)N21", "activity, positive = re-replication": "inactive: -12.7%"}
{"compound": "O=[N+]([O-])c1cccc(N/N=C/c2ccc(N3CCOCC3)cc2)c1", "Potency": "inconclusive [activator, single point]"}
{"compound": "COc1cccc(N2CCN(Cc3nc4scc(-c5ccccc5)c4c(=O)[nH]3)CC2)c1", "Potency": "active: 10.3 µM"}
{"compound": "COCCCNC(=O)CCCN1C(=O)c2cccnc2Sc2ccccc21", "activity, positive = re-replication": "inactive: -5.25%"}
{"compound": "CCNC(=S)/N=C(/Nc1ccccc1)Nc1nc(C)cc(C)n1", "Potency": "inconclusive [activator, single point]"}
{"compound": "COc1ccc(NS(=O)(=O)c2ccc(NC(C)=O)cc2)c(OC)c1", "Potency": "inconclusive [activator, single point]"}
{"compound": "CN(C)c1ccc(/C=N/NC(=O)c2cccc(N3CCCC3=O)c2)cc1", "Potency": "inconclusive [activator, single point]"}
{"compound": "COC(C[C@@H](O)C[C@H](O)[C@@H](C)OCc1ccccc1)OC", "activity, positive = re-replication": "inactive: 23%"}
{"compound": "O=c1[nH]c(Cc2ccccn2)nc2scc(-c3ccc(Cl)cc3)c12", "Potency": "inconclusive [activator, single point]"}
{"compound": "CCn1c(-c2sc(-c3ccccc3)nc2C)n[nH]c1=S", "activity, positive = re-replication": "inactive: 11.9%"}
{"compound": "CCOC(=O)C1=NN(C(=O)Cc2ccccc2)C(O)(c2ccc(Cl)cc2)C1", "note": "(configuration not stated)", "Potency": "inconclusive [activator, single point]"}
{"compound": "c1ccc(N(c2ccccc2)c2nc(N3CCCC3)nc(-n3ccnc3)n2)cc1", "Potency": "active: 3.66 µM"}
{"compound": "CCOC(=O)CSC1=NC(=O)/C(=C\\c2ccc(Cl)cc2)S1", "Potency": "inconclusive [activator, partial curve, poor fit]"}
{"compound": "CCCNC(=O)C(Cc1ccc(F)cc1)NC(=O)c1ccc(C#N)cc1", "note": "(configuration not stated)", "activity, positive = re-replication": "inactive: -0.274%"}
{"compound": "O=C1CC(c2ccccc2)CC(O)=C1C=NCCCN1CCOCC1", "note": "(configuration not stated)", "Potency": "inconclusive [activator, full curve, poor fit]"}
{"compound": "O=C1C2CCCN2C(=O)N1CCCN1CCN(c2ccc([N+](=O)[O-])cc2)CC1", "note": "(configuration not stated)", "activity, positive = re-replication": "inactive: -11.9%"}
{"compound": "CCN(CC(=O)Nc1ccccc1C(F)(F)F)C(=O)CCc1nc2sc3c(c2c(=O)[nH]1)CCCC3", "Potency": "inconclusive [activator, single point]"}
{"compound": "COc1ccccc1OCCC(=O)Nc1nc(C)cs1", "activity, positive = re-replication": "inactive: 2.4%"}
{"compound": "C[N+](C)(C)CC=O", "Potency": "inconclusive [activator, full curve, poor fit]"}
{"compound": "O=C1Nc2ccccc2C1=Nc1ccc(F)cc1", "Potency": "inconclusive [activator, single point]"}
{"compound": "O=C(COc1ccc(Cl)cc1Cl)NCCCCc1ccccc1", "Potency": "inconclusive [activator, single point]"}
{"compound": "O=C1c2ccccc2-c2n[nH]c(=O)c3ccc(N4CCCCC4)c1c23", "activity, positive = re-replication": "inactive: 1.07%"}
{"compound": "COC(=O)/C=c1\\sc2ncnn2c1=O", "Potency": "active: 11.2 µM"}
{"compound": "Cc1cc(C(C#N)c2cccc(Cl)c2)n2ncnc2n1", "note": "(configuration not stated)", "Potency": "inconclusive [activator, full curve, poor fit]"}
{"compound": "Cc1ccc(NC(=O)CN(C)C(=O)c2ccc3[nH]c4c(c3c2)CC(C)CC4)cc1", "note": "(configuration not stated)", "Potency": "inconclusive [activator, partial curve, poor fit]"}
{"compound": "CS(=O)(=O)N1CCN(c2ccc([N+](=O)[O-])c(SCc3ccco3)c2)CC1", "Potency": "inconclusive [activator, partial curve, poor fit]"}
{"compound": "O=C(N/N=C/c1ccc(Cl)cc1)c1n[nH]c2c1CCCC2", "Potency": "inconclusive [activator, partial curve, poor fit]"}
